{"sequences": {"note": "Amino acid sequences for entries named in this document (tags omitted).", "UniProt Q12888": "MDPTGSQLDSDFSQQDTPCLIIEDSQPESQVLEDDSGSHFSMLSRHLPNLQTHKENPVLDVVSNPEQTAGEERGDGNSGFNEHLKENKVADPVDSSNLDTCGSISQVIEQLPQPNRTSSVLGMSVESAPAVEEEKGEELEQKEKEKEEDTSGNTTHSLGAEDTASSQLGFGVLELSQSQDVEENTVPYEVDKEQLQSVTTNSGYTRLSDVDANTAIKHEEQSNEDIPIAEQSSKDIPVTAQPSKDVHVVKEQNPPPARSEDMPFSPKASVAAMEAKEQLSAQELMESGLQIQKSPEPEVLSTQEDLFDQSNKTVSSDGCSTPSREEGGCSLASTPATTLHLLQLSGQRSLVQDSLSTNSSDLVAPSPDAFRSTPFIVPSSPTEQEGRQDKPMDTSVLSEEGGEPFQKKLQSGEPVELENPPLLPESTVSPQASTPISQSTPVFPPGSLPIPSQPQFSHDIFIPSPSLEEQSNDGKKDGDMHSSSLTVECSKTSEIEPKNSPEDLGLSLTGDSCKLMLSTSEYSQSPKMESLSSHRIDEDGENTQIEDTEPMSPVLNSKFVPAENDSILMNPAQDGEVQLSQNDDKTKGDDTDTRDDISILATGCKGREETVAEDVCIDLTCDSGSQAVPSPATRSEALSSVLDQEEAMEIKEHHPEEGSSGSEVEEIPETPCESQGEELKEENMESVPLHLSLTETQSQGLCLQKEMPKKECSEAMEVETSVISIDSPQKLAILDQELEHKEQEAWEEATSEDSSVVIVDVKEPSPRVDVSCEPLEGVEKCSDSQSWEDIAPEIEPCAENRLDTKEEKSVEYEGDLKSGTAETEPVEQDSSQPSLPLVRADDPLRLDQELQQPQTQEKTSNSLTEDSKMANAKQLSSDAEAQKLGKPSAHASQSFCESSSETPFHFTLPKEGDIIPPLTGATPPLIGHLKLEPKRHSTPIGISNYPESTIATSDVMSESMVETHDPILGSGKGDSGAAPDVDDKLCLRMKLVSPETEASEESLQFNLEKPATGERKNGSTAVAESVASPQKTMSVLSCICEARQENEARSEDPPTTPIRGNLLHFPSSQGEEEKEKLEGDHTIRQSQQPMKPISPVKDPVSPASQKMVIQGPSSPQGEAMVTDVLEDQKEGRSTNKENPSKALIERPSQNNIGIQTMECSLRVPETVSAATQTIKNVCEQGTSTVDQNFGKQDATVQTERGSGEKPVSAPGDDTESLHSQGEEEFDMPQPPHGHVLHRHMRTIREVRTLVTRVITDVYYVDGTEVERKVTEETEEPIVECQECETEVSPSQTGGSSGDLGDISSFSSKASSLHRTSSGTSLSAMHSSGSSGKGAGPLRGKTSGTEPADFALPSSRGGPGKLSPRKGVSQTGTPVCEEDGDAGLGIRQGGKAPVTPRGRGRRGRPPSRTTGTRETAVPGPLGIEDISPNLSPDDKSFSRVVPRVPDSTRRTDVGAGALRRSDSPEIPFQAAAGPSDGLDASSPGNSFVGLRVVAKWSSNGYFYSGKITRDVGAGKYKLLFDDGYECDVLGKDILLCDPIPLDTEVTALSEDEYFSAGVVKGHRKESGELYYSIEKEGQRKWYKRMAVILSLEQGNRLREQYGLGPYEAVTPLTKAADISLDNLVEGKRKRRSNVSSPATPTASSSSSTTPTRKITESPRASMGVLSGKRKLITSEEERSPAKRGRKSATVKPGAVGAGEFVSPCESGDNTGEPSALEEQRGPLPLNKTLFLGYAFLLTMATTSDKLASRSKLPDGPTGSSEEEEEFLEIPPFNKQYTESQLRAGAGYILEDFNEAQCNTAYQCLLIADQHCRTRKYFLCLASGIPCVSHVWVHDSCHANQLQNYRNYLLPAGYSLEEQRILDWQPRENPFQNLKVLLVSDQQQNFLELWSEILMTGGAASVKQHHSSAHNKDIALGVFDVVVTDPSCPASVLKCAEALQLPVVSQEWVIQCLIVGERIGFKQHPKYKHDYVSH"}, "source": "paper PMC12815461", "binders": {"B1": {"name": "GMCL1, endogenous in HEK293T (as part of CRL3^GMCL1) (protein, UniProt Q96IK5 1-515)", "chain": "MGSLSSRVLRQPRPALAQQAQGARAGGSARRPDTGDDAAGHGFCYCAGSHKRKRSSGSFCYCHPDSETDEDEEEGDEQQRLLNTPRRKKLKSTSKYIYQTLFLNGENSDIKICALGEEWSLHKIYLCQSGYFSSMFSGSWKESSMNIIELEIPDQNIDVEALQVAFGSLYRDDVLIKPSRVVAILAAACLLQLDGLIQQCGETMKETVNVKTVCGYYTSAGTYGLDSVKKKCLEWLLNNLMTHQNVELFKELSINVMKQLIGSSNLFVMQVEMDIYTALKKWMFLQLVPSWNGSLKQLLTETDVWFSKQRKDFEGMAFLETEQGKPFVSVFRHLRLQYIISDLASARIIEQDAVVPSEWLSSVYKQQWFAMLRAEQDSEVGPQEINKEELEGNSMRCGRKLAKDGEYCWRWTGFNFGFDLLVTYTNRYIIFKRNTLNQPCSGSVSLQPRRSIAFRLRLASFDSSGKLICSRTTGYQILTLEKDQEQVVMNLDSRLLIFPLYICCNFLYISPEKKN"}}, "target": "FLAG-53BP1 WT (human) (UniProt Q12888)", "experiment": "co-IP; FLAG-53BP1 WT, ΔMFF or IEDI_AAAA transfected into HEK293T, MLN4924 for 3 hr; 53BP1 immunoprecipitated (FLAG) and immunoblotted", "note": "These are yes or no findings as the source states them, for the method shown. In cells and extracts the contact can be indirect. Some entries that bind do so weakly or less than the wild type.", "data": [{"binder": "B1", "values": [{"measurement": "binding", "value": "binds"}]}]}
